Laboratory results as given in patent US20110008345A1 (GlaxoSmithKline, published 2011).
Values belong to the binder of their own block, whether it stands above or below them.

Columns and labels:
[1] = biological target: T1, recombinant E. coli-expressed human IL-13 (human, UniProt P35225 partial chain); experiment: SPR
T1 construct: made and purified at GSK; also called Interleukin-13; rhIL-13

[2] = biological target: T2, recombinant Sf21-expressed human IL-5 (human, UniProt P05113 20-134); experiment: SPR
[3] = biological target: T3, recombinant E. coli-expressed human IL-4 (human, UniProt P05112 25-153); experiment: SPR
T3 construct: made and purified at GSK; also called Interleukin-4; rhIL-4
T3 sequence: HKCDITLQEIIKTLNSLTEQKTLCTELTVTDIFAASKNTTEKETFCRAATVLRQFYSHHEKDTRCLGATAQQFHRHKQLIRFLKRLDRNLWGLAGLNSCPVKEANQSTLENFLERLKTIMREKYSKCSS

[4] = biological target: T1, recombinant E. coli-expressed human …; experiment: ELISA, supernatant
[5] = biological target: T2, recombinant Sf21-expressed human IL-5; experiment: ELISA, supernatant
[6] = biological target: recombinant E. coli-expressed human IL-18 (human, UniProt Q14116 37-193); experiment: ELISA, supernatant
[7] = biological target: T3, recombinant E. coli-expressed human IL-4; experiment: ELISA, supernatant
[8] = biological target: T4, recombinant human IL-12 (human, UniProt P29459 23-219; P29460 23-328); experiment: ELISA, supernatant
T4 sequence (looked up) 1: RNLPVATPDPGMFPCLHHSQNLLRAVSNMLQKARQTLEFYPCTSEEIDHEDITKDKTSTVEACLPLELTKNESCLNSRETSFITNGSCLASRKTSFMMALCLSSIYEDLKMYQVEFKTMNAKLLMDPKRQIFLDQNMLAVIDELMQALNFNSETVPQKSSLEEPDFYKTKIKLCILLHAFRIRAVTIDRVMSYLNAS
T4 sequence (looked up) 2: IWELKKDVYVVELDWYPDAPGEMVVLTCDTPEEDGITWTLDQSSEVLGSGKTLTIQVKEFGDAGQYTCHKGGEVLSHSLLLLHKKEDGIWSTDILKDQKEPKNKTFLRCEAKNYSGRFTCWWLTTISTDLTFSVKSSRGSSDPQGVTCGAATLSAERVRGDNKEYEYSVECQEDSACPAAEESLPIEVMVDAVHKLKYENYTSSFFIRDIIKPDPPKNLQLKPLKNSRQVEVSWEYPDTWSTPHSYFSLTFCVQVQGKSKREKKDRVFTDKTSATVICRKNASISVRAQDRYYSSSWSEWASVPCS

- Kd [1]: 1.62 nM
- Kd [2]: 0.45 nM
- binding result [3]: binds
B1: Mepo-210-474 (other)
heavy: QVTLRESGPALVKPTQTLTLTCTVSGFSLTSYSVHWVRQPPGKGLEWLGVIWASGGTDYNSALMSRLSISKDTSRNQVVLTMTNMDPVDTATYYCARDPPSSLLRLDYWGRGTLVTVSS[human IgG1 constant region omitted]GGGGSEVQLLESGGGLVQPGGSLRLSCAASGFTFRNFGMGWVRQAPGKGLEWVSWIISSGTETYYADSVKGRFTISRDNSKNTLYLQMNSLRAEDTAVYYCAKSLGRFDYWGQGTLVTVSS
light: DIVMTQSPDSLAVSLGERATINCKSSQSLLNSGNQKNYLAWYQQKPGQPPKLLIYGASTRESGVPDRFSGSGSGTDFTLTISSLQAEDVAVYYCQNVHSFPFTFGGGTKLEIKRTVAAPSVFIFPPSDEQLKSGTASVVCLLNNFYPREAKVQWKVDNALQSGNSQESVTEQDSKDSTYSLSSTLTLSKADYEKHKVYACEVTHQGLSSPVTKSFNRGECGGGGSGVQLLESGGGLVQPGGSLRLSCAASGFTFAWYDMGWVRQAPGKGLEWVSSIDWHGEVTYYADSVKGRFTISRDNSKNTLYLQMNSLRAEDTAVYYCATAEDEPGYDYWGQGTLVTVSS
notes: trispecific mAbdAb; also called trispecific anti-IL5 mAb-anti-IL4dAb-anti-IL13dAb

- binding result [4]: binds
- binding result [5]: binds
B2: MepolizumabL-G4S-474 (bispecific antibody, human IgG1, kappa)
heavy: QVTLRESGPALVKPTQTLTLTCTVSGFSLTSYSVHWVRQPPGKGLEWLGVIWASGGTDYNSALMSRLSISKDTSRNQVVLTMTNMDPVDTATYYCARDPPSSLLRLDYWGRGTLVTVSS[human IgG1 constant region omitted]
light: B1 light
notes: also called BPC1021; anti-IL5 mAb-anti-IL13dAb

- binding result [6]: binds
- binding result [7]: binds
- binding result [8]: binds
B3: BPC1616 (other)
heavy: EVTLRESGPALVKPTQTLTLTCTFSGFSLSKSVMGVSWIRQPPGKALEWLAHIYWDDDKYYNPSLKSRLTISKDTSKNQVVLTMTNMDPVDTATYYCARRGIRSAMDYWGQGTTVTVSSASTKGPEVQLVQSGTEVKKPGESLKISCKGSGYTVTSYWIGWVRQMPGKGLEWMGFIYPGDSETRYSPTFQGQVTISADKSFNTAFLQWSSLKASDTAMYYCARVGSGWYPYTFDIWGQGTLVTVSS[human IgG1 constant region omitted]TVAAPSEVQLLESGGGLVQPGGSLRLSCAASGFTFRNFGMGWVRQAPGKGLEWVSWIISSGTETYYADSVKGRFTISRDNSKNTLYLQMNSLRAEDTAVYYCAKSLGRFDYWGQGTLVTVSS
light: DIVMTQSPDSLAVSLGERATINCKASQSVSNDVAWYQQKPGQPPKLLIYYASNRYTGVPDRFSGSGSGTDFTLTISSLQAEDVAVYYCQQDYNSPWTFGGGTKVEIKRTVAAPEIVMTQSPATLSVSPGERATLSCRASESASSNLAWYQQKPGQAPRLFIYTASTRATDIPARFSGSGSGTEFTLTISSLQSEDFAVYYCQQYNNWPSITFGQGTRLEIKRTVAAPSVFIFPPSDEQLKSGTASVVCLLNNFYPREAKVQWKVDNALQSGNSQESVTEQDSKDSTYSLSSTLTLSKADYEKHKVYACEVTHQGLSSPVTKSFNRGEC
notes: trispecific; also called IL-12/18 DVDH TVAAPS-210
